# Measured values published in publication PMC4336329 (PLoS ONE, 2015).
# The campaign covered roughly 310,000 compounds. About 2,200 (0.71%) showed an effect of 50% or more. Effects have a minus sign here. The list shows a part of the results.
# Target: human ether-à-go-go-related gene (hERG) potassium channel (human, UniProt Q12809)
# Assay: primary screen, population patch clamp on CHO cells stably expressing hERG
# Chain of human ether-à-go-go-related gene (hERG) potassium channel (Q12809 whole entry, looked up): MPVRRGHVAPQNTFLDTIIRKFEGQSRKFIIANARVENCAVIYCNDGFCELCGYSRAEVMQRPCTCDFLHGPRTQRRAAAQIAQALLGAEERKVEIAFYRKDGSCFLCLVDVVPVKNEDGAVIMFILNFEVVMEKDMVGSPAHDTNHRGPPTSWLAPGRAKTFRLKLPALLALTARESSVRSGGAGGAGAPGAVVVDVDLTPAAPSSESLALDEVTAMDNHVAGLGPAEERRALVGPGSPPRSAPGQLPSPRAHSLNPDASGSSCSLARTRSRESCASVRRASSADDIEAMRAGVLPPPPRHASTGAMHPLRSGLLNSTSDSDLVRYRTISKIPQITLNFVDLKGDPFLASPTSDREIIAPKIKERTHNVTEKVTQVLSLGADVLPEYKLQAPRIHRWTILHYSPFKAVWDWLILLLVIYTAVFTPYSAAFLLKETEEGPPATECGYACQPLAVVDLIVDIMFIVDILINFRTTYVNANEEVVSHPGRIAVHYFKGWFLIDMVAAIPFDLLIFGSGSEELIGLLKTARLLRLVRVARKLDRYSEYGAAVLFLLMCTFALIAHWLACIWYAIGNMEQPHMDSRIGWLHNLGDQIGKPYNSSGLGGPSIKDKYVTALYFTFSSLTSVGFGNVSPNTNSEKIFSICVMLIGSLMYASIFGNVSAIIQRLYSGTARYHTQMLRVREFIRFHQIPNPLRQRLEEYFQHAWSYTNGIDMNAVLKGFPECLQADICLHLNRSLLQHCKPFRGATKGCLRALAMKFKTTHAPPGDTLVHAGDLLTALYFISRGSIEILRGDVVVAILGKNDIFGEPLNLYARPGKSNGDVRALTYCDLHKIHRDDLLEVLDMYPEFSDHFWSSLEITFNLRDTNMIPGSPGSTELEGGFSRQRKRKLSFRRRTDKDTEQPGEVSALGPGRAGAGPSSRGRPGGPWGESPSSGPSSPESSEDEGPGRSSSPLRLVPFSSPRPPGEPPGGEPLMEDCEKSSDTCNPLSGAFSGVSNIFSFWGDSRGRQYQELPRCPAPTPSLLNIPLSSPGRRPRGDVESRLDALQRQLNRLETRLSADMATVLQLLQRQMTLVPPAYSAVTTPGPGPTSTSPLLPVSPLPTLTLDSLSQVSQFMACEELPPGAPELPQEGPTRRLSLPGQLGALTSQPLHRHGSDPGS
row,SMILES,"hERG current change (%, negative = inhibition) at 1uM [%]"
1,COc1cccc(CN2CCC(N(CCc3ccccc3)Cc3ccccc3)CC2)c1OC.O=C(O)C(=O)O,0.877
2,Cc1cccc(N(C(=O)CCC(=O)Nc2ccccn2)C(C(=O)NC(C)C)c2ccc(F)cc2)c1 (stereo not shown),19.3
3,O=C(/C=C/c1ccccc1)NCCS(=O)(=O)N1CCN(c2ccccc2)CC1,6.84
4,COc1ccc2cc(C(=O)C3CCCN(C(=O)c4snnc4C)C3)ccc2c1 (stereo not shown),3.03
5,O=C(c1csc2c1CCCC2)N1CCN(c2ccccc2)CC1,4.39
6,O=C(Cn1cnc2ccccc21)N/N=C/c1ccco1,13.4
7,COCCn1cc(-c2csc(N)n2)c2ccccc21,12.2
8,CCC(c1nnnn1C1CCCC1)N(Cc1cccs1)Cc1cc2cccc(C)c2[nH]c1=O (stereo not shown),11.2
9,CCc1ccc(NC(=O)c2cc(Br)ccc2Br)cc1,1.78
10,O=C(CSc1nc(-c2ccco2)cc(C(F)(F)F)n1)N1CCSCC1,-4.71
11,O=C(NCCCN1CCOCC1)C(=O)N/N=C/c1ccc(F)cc1,13
12,Cc1ccc(C)c(S(=O)(=O)N2CCN(CC(=O)NC(=O)NCc3ccccc3)CC2)c1,1.37
13,Cc1ccc(OCCN2C(=O)c3ccccc3C2=O)c(C)c1,-2.42
14,CC(=O)N[C@@H](C)C(=O)N1CCC(n2nccc2NC(=O)CCCc2ccccc2)CC1,15.2
15,CSCCC(NC(=O)C1CCC(C)CC1)C(=O)N1CCN(c2ccccn2)CC1 (stereo not shown),-34.4
16,CC(C)C1Oc2ccccc2N(CC(=O)N(Cc2ccccn2)C2CC2)C1=O (stereo not shown),5.36
17,O=C(Nn1c(C2CCCCC2)nc2ccccc2c1=O)c1ccc([N+](=O)[O-])cc1,5.74
18,O=C(O)c1cc([N+](=O)[O-])ccc1NCc1cccnc1,11
19,Cc1ccc(-c2nc3c(Cl)cc(Cl)cc3c(=O)n2O)cc1,11.9
20,COc1cc(N2CCCC2)c(OC)cc1/C=C1/NC(=S)NC1=O,4.37
21,O=C(CSc1nc(-c2cccs2)cc(C(F)(F)F)n1)NCCCN1CCOCC1,0.986
22,CC1Cc2ccccc2N1C(=O)COC(=O)c1ccc(Cl)nc1 (stereo not shown),8.17

row,SMILES,"hERG current change (%, negative = inhibition) at 1uM [%]"
1,Cc1nc(S/C(C(=O)O)=C2/C(=O)Nc3ccccc32)n[nH]1,-1.95
2,CCOc1ccc(-c2noc(CCCC(=O)NC3CCCCC3)n2)cc1OC,-7.49
3,O=C(Nc1ccc(O)cc1)c1ccc2c(c1)C(=O)N(Cc1cccnc1)C2=O,15.7
4,CCC(CC)NC(=O)c1nn(Cc2ccccc2)c(=O)c2ccccc12,13.1
5,O=C(c1cc2ccccc2oc1=O)N1CCN(c2ccccn2)CC1,9.08
6,COCCCNC(=S)Nc1cccc(SC)c1,14.3
7,COc1ccc(CC2(CCc3ccccn3)C(=O)NC(=O)N(c3ccccc3C)C2=O)cc1OC (stereo not shown),9.49
8,COc1ccc(-c2c(C)n([O-])c3c([n+]2=O)CCCCC3)cc1,2.36
9,Cc1c(Cl)cccc1NC(=O)CNc1cccc(C(F)(F)F)c1,2.51
10,COc1ccc(CCNC(=O)c2nn(C)c3c2CS(=O)(=O)c2ccccc2-3)c(OC)c1,10.2
11,Cc1nn(-c2ccc(Cl)cc2Cl)c(=O)c2ccccc12,6.47
12,CCOC(=O)N1CCN(C(=O)CCN2C(=O)/C(=C\c3cccc(OC)c3)SC2=S)CC1,7.62
13,Cc1ccc(C(=O)CSc2nnc(-c3ccco3)o2)o1,5.44
14,C/C(=C(\C#N)C(=O)NCCN1CCOCC1)N(C)C,-8.79
15,COc1ccc2c(c1)c(C(C)=O)c(C)n2CCc1ccc(OC)c(OC)c1,5.08
16,COc1ccc(CCNC(=O)c2cc(=O)c3cc(C)ccc3o2)cc1OC,8.92
17,COC(=O)Cc1ccc(OC(=O)c2cccc(S(=O)(=O)N3CCN(C)CC3)c2)cc1,4.82
18,O=C(O)c1cccc(S(=O)(=O)Nc2cccc(S(=O)(=O)N3CCCC3)c2)c1,11.2
19,CN(C(=O)c1ccc2c(c1)OCO2)C1(C)CCS(=O)(=O)C1 (stereo not shown),7.11
20,Cc1cccc(Oc2sc(C(=O)c3ccccc3)c(N)c2C#N)c1C,12.5
21,COc1ccc(NC(=S)NC(NC(=O)c2cccc3ccccc23)C(Cl)(Cl)Cl)c([N+](=O)[O-])c1 (stereo not shown),5.26
